Among all 310,000 compounds or so, about 2,200 (0.71%) showed an effect of 50% or more. The effect is printed as a negative number. The list shows a part of the results.
These compounds were tested against human ether-à-go-go-related gene (hERG) potassium channel (human, UniProt Q12809) (assay: primary screen, population patch clamp on CHO cells stably expressing hERG).
human ether-à-go-go-related gene (hERG) potassium channel, sequence (Q12809 whole entry, looked up): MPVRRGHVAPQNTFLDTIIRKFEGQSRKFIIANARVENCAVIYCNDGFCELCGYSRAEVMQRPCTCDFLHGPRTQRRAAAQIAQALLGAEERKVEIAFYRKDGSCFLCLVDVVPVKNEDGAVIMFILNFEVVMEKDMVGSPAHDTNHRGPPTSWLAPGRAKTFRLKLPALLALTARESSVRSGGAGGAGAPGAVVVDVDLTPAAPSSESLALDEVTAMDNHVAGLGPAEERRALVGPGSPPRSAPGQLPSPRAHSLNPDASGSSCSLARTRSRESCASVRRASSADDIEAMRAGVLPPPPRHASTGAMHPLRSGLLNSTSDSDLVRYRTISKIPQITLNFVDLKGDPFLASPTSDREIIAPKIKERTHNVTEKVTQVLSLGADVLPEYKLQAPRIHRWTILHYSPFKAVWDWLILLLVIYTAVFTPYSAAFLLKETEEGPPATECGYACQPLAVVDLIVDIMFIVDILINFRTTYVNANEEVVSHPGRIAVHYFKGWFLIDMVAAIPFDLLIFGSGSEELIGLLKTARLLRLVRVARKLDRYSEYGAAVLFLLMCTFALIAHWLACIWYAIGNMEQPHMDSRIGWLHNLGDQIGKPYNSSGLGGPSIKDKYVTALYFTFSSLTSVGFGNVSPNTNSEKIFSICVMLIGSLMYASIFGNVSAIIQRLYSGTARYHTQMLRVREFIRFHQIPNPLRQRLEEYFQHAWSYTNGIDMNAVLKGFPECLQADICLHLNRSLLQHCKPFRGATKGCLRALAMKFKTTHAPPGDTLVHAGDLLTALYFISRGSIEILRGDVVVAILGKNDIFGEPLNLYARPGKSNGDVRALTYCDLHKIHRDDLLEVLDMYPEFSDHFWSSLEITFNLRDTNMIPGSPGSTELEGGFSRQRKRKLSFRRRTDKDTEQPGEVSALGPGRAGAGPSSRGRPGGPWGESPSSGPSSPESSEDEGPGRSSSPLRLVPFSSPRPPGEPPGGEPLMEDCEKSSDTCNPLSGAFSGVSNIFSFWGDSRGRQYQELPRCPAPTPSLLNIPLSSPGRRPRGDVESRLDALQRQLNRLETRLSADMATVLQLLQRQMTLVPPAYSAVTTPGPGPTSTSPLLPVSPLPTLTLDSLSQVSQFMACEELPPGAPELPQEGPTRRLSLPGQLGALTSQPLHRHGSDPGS

Structure (SMILES) | hERG current change (%, negative = inhibition) at 1uM
CCOC(=O)c1cc2c(=O)n3ccccc3nc2n(CCOC)c1=NC(=O)C(C)(C)C | 10.1%
O=C1OCCN1CC(=O)N1CCc2c([nH]c3ccccc23)C1c1ccccn1 (stereo not drawn) | 5.1%
CCCCCCCNC(=O)C1(CC2CC(c3cccc(Br)c3)=NO2)CCN(C(=O)OC(C)(C)C)CC1 (stereo not drawn) | 4.2%
Cc1ccccc1-n1c(C)cc(/C=N/Nc2ccc([N+](=O)[O-])cn2)c1C | 16.6%
O=C(NCCc1ccc(Cl)cc1)C1CCN(S(=O)(=O)c2ccc(-n3cnnn3)cc2)CC1 | -36.1%
CCOC(=O)c1c(-c2ccccc2)oc2ccc(O)cc12 | 10.6%
CCn1c(CNC(=O)c2ccccc2F)nnc1SCC(=O)Nc1nncs1 | 6.04%
O=C(c1ccccc1)c1cc[n+]([O-])cc1 | 4.5%
CCc1ccc(NS(=O)(=O)c2c(C(=O)N3CCCCCC3)c(C)n(C)c2C)cc1 | 9.92%
O=C(Nc1cccc(O)c1)C1CCCN1C(=O)OCc1ccccc1 (stereo not drawn) | 3.5%
Clc1ccc2[nH]cc(-c3nnnn3-c3ccccc3)c2c1 | 11.5%
COCc1cc(=O)[nH]c(Nc2nc3ccccc3o2)n1 | 5.93%
COc1cc(OC)cc(-c2c(-c3cccs3)c3cc(-c4ccc(SC)cc4)ccc3n2C)c1 | 6.34%
CCOc1ccc(CCNC(=O)c2nnn(CC(=O)Nc3c(C)cc(C)cc3C)c2N)cc1OCC | 15.9%
CC(=O)N(C)c1nc(-c2ccc(Cl)cc2)cs1 | 15.6%
CC(C)c1ccccc1OCCNC(=S)NC(=O)c1cccnc1 | 14.9%
CCCCNC(=O)Cn1cnc2c(cnn2-c2ccc(C)c(C)c2)c1=O | 0.431%
COc1cccc(N2CCN(C(=S)NCCc3ccccc3)CC2)c1 | 4.9%
Cn1c(Cc2ccccc2)nnc1SCC(=O)c1ccc(Br)s1 | -0.365%
C=C(CO)CC1CC(O)[C@]2(C)OC3CC4OC5C[C@]6(C)O[C@]7(C)CCC8OC9C[C@]%10(C)OC%11C(C)=CC(=O)OC%11CC%10OC9C[C@@H](C)C8OC7CC6O[C@]5(C)C/C=C\C4OC3CC2O1 (stereo partly drawn) | 7.4%
COC(=O)CN1C(=S)N(Cc2ccccc2)C(=O)C1CC(=O)Nc1ccc(Br)cc1 (stereo not drawn) | 16.9%
O=C(CC1S/C(=N/N=C/c2cccs2)NC1=O)Nc1ccccc1F (stereo not drawn) | 23.6%
Cc1ccnc(NC(=S)NC(=O)c2ccco2)c1 | 0.569%

Structure (SMILES) | hERG current change (%, negative = inhibition) at 1uM
O=C(CNC(=O)c1ccc(Oc2ccccc2)cc1)OC1CCCCC1=O (stereo not drawn) | -58.8%
N#CC1(NC(=O)COc2ccc3ccc(=O)oc3c2)CCCCC1 | 8.07%
c1csc(CNc2nc(-c3cccs3)nc3ccccc23)c1 | 0.853%
S=c1[nH]nc(Cc2ccccc2)n1-c1ccc(Cl)cc1 | 12.7%
COC(CN1CCc2c(C)nc3c(C#N)cnn3c21)OC | 7.44%
Nc1cc(C(=O)OCC(=O)NCC2CCCO2)ccc1Cl (stereo not drawn) | 9.38%
O=C(Nc1ccc(F)cc1F)c1c(C(F)(F)F)ccnc1Oc1ccccc1 | 5.44%
CCOc1ccc(OCC(=O)OCC(=O)NNC(=O)c2ccc([N+](=O)[O-])cc2)cc1 | 4.82%
Cc1ccc(-c2csc(N/N=C/c3ccco3)n2)c(C)c1 | 13.4%
COc1ccc(Cl)cc1NC(=O)CCn1cnc2ccccc2c1=O | 6.22%
COc1ccc(-n2cc(-c3ccccc3)[nH]c2=S)c(OC)c1 | 14%
O=C(CCNS(=O)(=O)c1ccccc1)OCC(=O)c1ccc(Br)cc1 | -1.21%
Cc1cc(N2CCOCC2)nc2ccc(NC(=O)CCC(=O)N3CCC4(CC3)OCCO4)cc12 | 0.648%
CCCNC(=O)C(=O)NCC(c1ccc2c(c1)OCO2)N1CCN(c2ccc(F)cc2)CC1 (stereo not drawn) | 10.2%
Cc1cccc(NC(=S)NC2CCSc3ccccc32)c1 (stereo not drawn) | 16.3%
COC(=O)N1[C@H](Cc2ccccc2)C=C[C@]1(C)C(=O)O | 10.4%
Cc1ccc(-n2c(CNc3ccc(C)c(Cl)c3)n[nH]c2=S)cc1 | -6.2%
Cn1c(N)c(C(=O)COC(=O)c2ncc(Cl)c(Cl)c2Cl)c(=O)n(C)c1=O | -2.09%
Cc1cc(Cl)ccc1C(=O)C1CCCN(C(=O)c2ccsc2)C1 (stereo not drawn) | 4.82%
O=[N+]([O-])c1cc(/C=N/n2cnnc2)ccc1N1CCCC1 | -4.85%
CC1CCN(C(=O)CN2C(=O)C(=O)N(C)C2=O)c2ccccc2S1 (stereo not drawn) | 13.7%
CC(C)(C)OC(=O)N1CCCN(C(=O)Nc2ccc(C(F)(F)F)cc2)CC1 | 12.3%
Nc1ccc(C2CCCc3nonc32)c2nonc12 (stereo not drawn) | 12.5%

Structure (SMILES) | hERG current change (%, negative = inhibition) at 1uM
NC(=S)N/N=C/c1ccc(/C=N/NC(N)=S)cc1 | 18.4%
Cc1ccccc1NC(=S)NNC(=O)c1cccnc1 | 7.85%
Clc1ccc(-c2cc(CN3CCOCC3)no2)cc1 | 16%
FC(F)Oc1ccccc1NC(=S)Nc1cccnc1 | 7.06%
Cc1cc(C)c(-c2nc3ccccc3s2)[nH]1 | 14%
OC(CNC1Cc2ccccc2C1)COc1ccc(F)cc1 (stereo not drawn) | -7.42%
Cc1cc(-c2csc(N)n2)c(C)n1C | 12.2%
CC1(C)C(=O)OC(C(=O)c2ccc(Cl)cc2)C(C)(C)C1=O (stereo not drawn) | -1.25%
C/C(=N\NC(=O)Cc1ccccc1[N+](=O)[O-])c1cccnc1 | 5.44%
COc1ccc(C(=O)N2CCN(S(=O)(=O)c3ccc(Br)cc3)CC2)cc1 | 11.6%
CC1(C)Cc2noc(N)c2C(C)(C)N1OC(=O)c1ccco1 | 13.6%
O=C(Nc1ccc(S(=O)(=O)N2CCOCC2)cc1)c1c(F)cccc1F | 9.81%
O=C(CNS(=O)(=O)c1ccccc1)N/N=C/c1ccc(O)cc1 | 6.73%
C[C@@H](O)[C@@H]1NC(=O)c2cc([N+](=O)[O-])cc(I)c2NCC[C@@H](C(N)=O)NC(=O)CNC1=O | 2.38%
CCCCCCCN1C=CC(=O)CC1 | 17%
Cc1ccc2c(CC(=O)O)coc2c1C | 12.7%
CCOc1cc(/C=N\NC(=O)c2ccc(NC(=O)CC)cc2)ccc1OC(=O)c1ccccc1 | 10.2%
C/C(=N\OCC(=O)N/N=C/c1ccccc1)c1cccs1 | -1.2%
CCOP(=O)(OCC)/C(=N/OC(=O)c1ccc(Cl)cc1Cl)C(N)=O | 13.6%
Cl.O=C(NCCN1CCNCC1)c1ccccn1 | 8.8%
CCN(CC)CCNC(=O)c1ccc(CS(=O)(=O)c2ccc(Br)cc2)o1 | -24.2%
CN(C)/C(CN1CCOCC1)=C1\N=C(c2ccccc2)OC1=O | 5.94%
Cc1[nH]c2ccccc2c(=O)c1C(=O)/C=C/c1ccccc1 | 7.73%

Structure (SMILES) | hERG current change (%, negative = inhibition) at 1uM
COc1ccccc1Cn1cnc2cccnc21 | 15.1%
CN(C)S(=O)(=O)c1ccc(Cl)c(C(=O)NCCNC(=O)c2cc(S(=O)(=O)N(C)C)ccc2Cl)c1 | 15.4%
O=C1COc2ccc(S(=O)(=O)N3CCCC3)cc2N1 | 18.1%
Cn1c(=O)c(C(=O)NCc2ccccc2)c(O)c2ccccc21 | 14.6%
CC(C)Cc1nnc(NC(=O)C2=COCCO2)s1 | 30%
CC(=O)NC1=NN(C(C)=O)C(C)(CCS(=O)(=O)c2ccc(Cl)c(Cl)c2)S1 (stereo not drawn) | 1.23%
COc1cc(N=Cc2c(O)c3ccccc3oc2=O)c(OC)cc1Cl | 13.1%
COC(=O)c1c(C)oc(C)c1S(=O)(=O)NCc1ccc(OC)cc1 | 11.2%
CCOc1ccc(C(=O)NCCN2CCOCC2)cc1 | 9.53%
Cc1ccc(C(=O)OCC(=O)NCc2ccc3c(c2)OCO3)s1 | 1.35%
O=C(NN=C1CCCCCC1)c1cccs1 | 10.2%
CCn1nc(C)c(C2C(C#N)=C(N)OC3=C2C(=O)CCC3)c1C (stereo not drawn) | 10.6%
COc1cccc(C(=O)Nc2nnc(CCS(=O)(=O)c3ccc(C)cc3)s2)c1 | 19.8%
Nc1cc(=O)[nH]c(SCC(=O)Nc2ccccc2Sc2ccc(Cl)cc2)n1 | 16.8%
O=C(OCc1ccc(F)cc1)c1cc(=O)c2ccccc2o1 | 11.9%
COc1ccc(CN2CCC(n3nccc3NC(=O)C3CC3)CC2)c(Cl)c1OC | -2.09%
COc1ccc(NS(=O)(=O)c2c(C)[nH]c(C)c2C(=O)N2CCCCC2)cc1Cl | 5.53%
CC(Sc1nccn1C)C(=O)c1c(N)n(C)c(=O)n(C)c1=O (stereo not drawn) | 17.8%
COc1ccc(N(CC(=O)NCc2ccccc2)S(=O)(=O)c2c(C)n[nH]c2C)cc1 | 4.24%
Nc1ccc(Cc2ccc(N)c(C(=O)O)c2)cc1C(=O)O | 21.6%
COc1cc(S(=O)(=O)N2CCOCC2)ccc1NC(=O)COC(=O)C12CC3CC(CC(C3)C1)C2 | -4.67%

— article PMC4336329 (PLoS ONE, 2015)
